# Reference: the supplement of paper PMC8728848
# The other results are listed elsewhere or left out.
# B1: Cohesin-mDCIR (Macaca mulatta) (protein)
# chain: GLDDLDAVRIKVDTVNAKPGDTVRIPVRFSGIPSKGIANCDFVYSYDPNVLEIIEIEPGDIIVDPNPDKSFDTAVYPDRKIIVFLFAEDSGTGAYAITKDGVFATIVAKVKEGAPNGLSVIKFVEVGGFANNDLVEQKTQFFDGGVNVGDTTEPATPTTPVTTPTTTDDLDAASFQKYSQLLEKMTTKDLVHTTLECVKKNMTTEETAWSCCPKNWKPFSSNCYFISTESASWQKSEKDCARMEAHLLVINTREEQDFIFQNLQEESAYFVGLSDPEGQRHWQWVDRTPYNESSTFWHPHEPSDPDERCVVLNFRKTPKRWGWNDVHCIVHQRSVCEMMKIHLHHHHHH
# Legend:
# Assay in all cases: glycan array binding signal (z-score within array); higher = stronger binding
# Settings in all cases: glycan notation: IUPAC condensed, linker removed
# [1] = target: Gal3S(b1-4)Glc
# Outline: (§1)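 Glycan array binding is given as a within-array Z-score, which can be read as non-binding when negative. The arrays, 3228 of them, came from the Consortium for Functional Glycomics database and were retained only where the protein sequence was available. Z-scores were averaged across arrays of the same protein sequence at different concentrations or buffers and across linkers.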
# [2] = target: Gal3S(b1-4)Glc6S
# Outline: as §1
# [3] = target: Gal3S(b1-4)GlcNAc
# Outline: as §1
# [4] = target: Gal3S(b1-4)[Fuc(a1-3)]Glc6S
# Outline: as §1
# [5] = target: Gal3S(b1-4)[Fuc(a1-3)]GlcNAc
# Outline: as §1
# [6] = target: Gal3S(b1-4)[Fuc(a1-3)]GlcNAc6S
# Outline: as §1
# [7] = target: Gal3S4S(b1-4)GlcNAc
# Outline: as §1
# [8] = target: Gal3S6S(b1-4)GlcNAc
# Outline: as §1
# [9] = target: Gal3S6S(b1-4)GlcNAc6S
# Outline: as §1
# [10] = target: Gal4S(b1-4)GlcNAc
# Outline: as §1
# [11] = target: Gal4S6S(b1-4)GlcNAc
# Outline: as §1
# [12] = target: Gal6P(b1-4)GlcNAc
# Outline: as §1
# [13] = target: Gal6S(b1-3)GlcNAc
# Outline: as §1
# [14] = target: Gal6S(b1-3)GlcNAc6S
# Outline: as §1
# [15] = target: Gal6S(b1-4)Glc
# Outline: as §1
# [16] = target: Gal6S(b1-4)Glc6S
# Outline: as §1
# [17] = target: Gal6S(b1-4)GlcNAc
# Outline: as §1
# [18] = target: Gal6S(b1-4)GlcNAc6S
# Outline: as §1
# [19] = target: GalNAc(a1-3)Gal
# Outline: as §1
# [20] = target: GalNAc(a1-3)GalNAc
# Outline: as §1
# [21] = target: GalNAc(a1-3)GalNAc(b1-3)Gal(a1-4)Gal(b1-4)Glc
# Outline: as §1
# [22] = target: GalNAc(a1-3)GalNAc(b1-3)Gal(a1-4)Gal(b1-4)GlcNAc
# Outline: as §1
# [23] = target: GalNAc(b1-3)Gal
# Outline: as §1
# [24] = target: GalNAc(b1-3)Gal(a1-4)Gal(b1-4)GlcNAc
# Outline: as §1
# [25] = target: GalNAc(b1-3)Gal(a1-4)Gal(b1-4)GlcNAc(b1-3)Gal(b1-4)Glc
# Outline: as §1
# [26] = target: GalNAc(b1-3)Gal(a1-6)Gal(b1-4)Glc
# Outline: as §1
# [27] = target: GalNAc(b1-3)GalNAc
# Outline: as §1
# [28] = target: GalNAc(b1-3)GlcNAc
# Outline: as §1
# [29] = target: GalNAc(b1-4)Gal(b1-4)Glc
# Outline: as §1
# [30] = target: GalNAc(b1-4)GlcNAc
# Outline: as §1
# [31] = target: GalNAc(b1-4)GlcNAc(b1-2)Man
# Outline: as §1
# [32] = target: GalNAc(b1-4)GlcNAc(b1-2)Man(a1-3)[GalNAc(b1-4)GlcNAc(b1-2)Man(a1-6)]Man(b1-4)GlcNAc(b1-4)GlcNAc
# Outline: as §1
# [33] = target: GalNAc(b1-4)GlcNAc(b1-3)GalNAc(b1-4)GlcNAc
# Outline: as §1
# [34] = target: GalNAc(b1-4)GlcNAc6S
# Outline: as §1
# [35] = target: GalNAc(b1-6)GalNAc
# Outline: as §1
# [36] = target: GalNAc3S(b1-4)GlcNAc
# Outline: as §1
# [37] = target: GalNAc3S(b1-4)GlcNAc3S
# Outline: as §1
# [38] = target: GalNAc3S(b1-4)[Fuc(a1-3)]GlcNAc
# Outline: as §1
# [39] = target: GalNAc4S6S(b1-4)GlcNAc
# Outline: as §1
# [40] = target: GalNAc6S(b1-4)GlcNAc
# Outline: as §1
# [41] = target: Glc(a1-4)Glc
# Outline: as §1
# [42] = target: Glc(a1-4)Glc(a1-4)Glc(a1-4)Glc
# Outline: as §1
# [43] = target: Glc(a1-6)Glc(a1-6)Glc
# Outline: as §1
# [44] = target: Glc(a1-6)Glc(a1-6)Glc(a1-6)Glc
# Outline: as §1
# [45] = target: Glc(b1-4)Glc
# Outline: as §1
# [46] = target: Glc(b1-6)Glc
# Outline: as §1
# [47] = target: GlcA(b1-3)Gal
# Outline: as §1
# [48] = target: GlcA(b1-3)GlcNAc
# Outline: as §1
# [49] = target: GlcA(b1-6)Gal
# Outline: as §1
# [50] = target: GlcA3S(b1-3)Gal(b1-4)GlcNAc(b1-2)Man
# Outline: as §1
# [51] = target: GlcA3S(b1-3)Gal(b1-4)GlcNAc(b1-3)Gal(b1-4)Glc
# Outline: as §1
# [52] = target: GlcNAc(a1-3)Gal(b1-4)GlcNAc
# Outline: as §1
# [53] = target: GlcNAc(a1-4)Gal(b1-3)GlcNAc
# Outline: as §1
# [54] = target: GlcNAc(a1-4)Gal(b1-4)GalNAc
# Outline: as §1
# [55] = target: GlcNAc(a1-4)Gal(b1-4)GlcNAc
# Outline: as §1
# [56] = target: GlcNAc(a1-4)Gal(b1-4)GlcNAc(b1-3)Gal(b1-4)Glc
# Outline: as §1
# [57] = target: GlcNAc(a1-4)Gal(b1-4)GlcNAc(b1-3)Gal(b1-4)GlcNAc
# Outline: as §1
# [58] = target: GlcNAc(a1-4)Gal(b1-4)GlcNAc(b1-3)Gal(b1-4)GlcNAc(b1-3)Gal(b1-4)GlcNAc
# Outline: as §1
# [59] = target: GlcNAc(a1-4)Gal(b1-4)GlcNAc(b1-3)Gal(b1-4)[Fuc(a1-3)]GlcNAc(b1-3)Gal(b1-4)[Fuc(a1-3)]GlcNAc
# Outline: as §1
# [60] = target: GlcNAc(a1-6)Gal(b1-4)GlcNAc
# Outline: as §1
# [61] = target: GlcNAc(b1-2)Gal(b1-3)GalNAc
# Outline: as §1
# [62] = target: GlcNAc(b1-2)Man(a1-3)[GlcNAc(b1-2)Man(a1-6)]Man(b1-4)GlcNAc(b1-4)GlcNAc
# Outline: as §1
# [63] = target: GlcNAc(b1-2)Man(a1-3)[GlcNAc(b1-2)Man(a1-6)]Man(b1-4)GlcNAc(b1-4)[Fuc(a1-6)]GlcNAc
# Outline: as §1
# [64] = target: GlcNAc(b1-2)Man(a1-3)[GlcNAc(b1-4)][GlcNAc(b1-2)Man(a1-6)]Man(b1-4)GlcNAc(b1-4)GlcNAc
# Outline: as §1
# [65] = target: GlcNAc(b1-2)Man(a1-3)[GlcNAc(b1-4)][GlcNAc(b1-2)Man(a1-6)]Man(b1-4)GlcNAc(b1-4)[Fuc(a1-6)]GlcNAc
# Outline: as §1
# [66] = target: GlcNAc(b1-2)[GlcNAc(b1-4)]Man(a1-3)[GlcNAc(b1-2)Man(a1-6)]Man(b1-4)GlcNAc(b1-4)GlcNAc
# Outline: as §1
# [67] = target: GlcNAc(b1-2)[GlcNAc(b1-4)]Man(a1-3)[GlcNAc(b1-4)][GlcNAc(b1-2)Man(a1-6)]Man(b1-4)GlcNAc(b1-4)GlcNAc
# Outline: as §1
# [68] = target: GlcNAc(b1-2)[GlcNAc(b1-4)]Man(a1-3)[GlcNAc(b1-4)][GlcNAc(b1-2)[GlcNAc(b1-6)]Man(a1-6)]Man(b1-4)GlcNAc(b1-4)GlcNAc
# Outline: as §1
# [69] = target: GlcNAc(b1-2)[GlcNAc(b1-4)]Man(a1-3)[GlcNAc(b1-4)][GlcNAc(b1-2)[GlcNAc(b1-6)]Man(a1-6)]Man(b1-4)GlcNAc(b1-4)[Fuc(a1-6)]GlcNAc
# Outline: as §1
# [70] = target: GlcNAc(b1-2)[GlcNAc(b1-6)]Man(a1-6)[GlcNAc(b1-2)Man(a1-3)]Man(b1-4)GlcNAc(b1-4)GlcNAc
# Outline: as §1
# [71] = target: GlcNAc(b1-2)[GlcNAc(b1-6)]Man(a1-6)[GlcNAc(b1-2)Man(a1-3)]Man(b1-4)GlcNAc(b1-4)[Fuc(a1-6)]GlcNAc
# Outline: as §1
# [72] = target: GlcNAc(b1-2)[GlcNAc(b1-6)]Man(a1-6)[GlcNAc(b1-4)][GlcNAc(b1-2)Man(a1-3)]Man(b1-4)GlcNAc(b1-4)GlcNAc
# Outline: as §1
# [73] = target: GlcNAc(b1-3)Fuc
# Outline: as §1
# [74] = target: GlcNAc(b1-3)Gal
# Outline: as §1
# [75] = target: GlcNAc(b1-3)Gal(b1-3)GalNAc
# Outline: as §1
binder,measurement,setting,value
B1,glycan array binding signal (z-score),[1],5.11
same,glycan array binding signal (z-score),[2],1.61
same,glycan array binding signal (z-score),[3],0.532
same,glycan array binding signal (z-score),[4],-0.263
same,glycan array binding signal (z-score),[5],-0.231
same,glycan array binding signal (z-score),[6],1.55
same,glycan array binding signal (z-score),[7],-0.271
same,glycan array binding signal (z-score),[8],-0.105
same,glycan array binding signal (z-score),[9],0.169
same,glycan array binding signal (z-score),[10],-0.226
same,glycan array binding signal (z-score),[11],-0.226
same,glycan array binding signal (z-score),[12],0.112
same,glycan array binding signal (z-score),[13],-0.437
same,glycan array binding signal (z-score),[14],2.23
same,glycan array binding signal (z-score),[15],-0.237
same,glycan array binding signal (z-score),[16],-0.266
same,glycan array binding signal (z-score),[17],-0.374
same,glycan array binding signal (z-score),[18],0.096
same,glycan array binding signal (z-score),[19],0.417
same,glycan array binding signal (z-score),[20],-0.028
same,glycan array binding signal (z-score),[21],-0.325
same,glycan array binding signal (z-score),[22],-0.138
same,glycan array binding signal (z-score),[23],2.45
same,glycan array binding signal (z-score),[24],1.26
same,glycan array binding signal (z-score),[25],0.862
same,glycan array binding signal (z-score),[26],2.77
same,glycan array binding signal (z-score),[27],-0.19
same,glycan array binding signal (z-score),[28],0.282
same,glycan array binding signal (z-score),[29],-0.27
same,glycan array binding signal (z-score),[30],0.436
same,glycan array binding signal (z-score),[31],0.485
same,glycan array binding signal (z-score),[32],-0.067
same,glycan array binding signal (z-score),[33],0.414
same,glycan array binding signal (z-score),[34],0.245
same,glycan array binding signal (z-score),[35],-0.439
same,glycan array binding signal (z-score),[36],-0.436
same,glycan array binding signal (z-score),[37],-0.312
same,glycan array binding signal (z-score),[38],-0.411
same,glycan array binding signal (z-score),[39],-0.28
same,glycan array binding signal (z-score),[40],0.734
same,glycan array binding signal (z-score),[41],-0.102
same,glycan array binding signal (z-score),[42],-0.351
same,glycan array binding signal (z-score),[43],0.1
same,glycan array binding signal (z-score),[44],-0.217
same,glycan array binding signal (z-score),[45],0.092
same,glycan array binding signal (z-score),[46],0.409
same,glycan array binding signal (z-score),[47],-0.398
same,glycan array binding signal (z-score),[48],-0.281
same,glycan array binding signal (z-score),[49],-0.382
same,glycan array binding signal (z-score),[50],-0.374
same,glycan array binding signal (z-score),[51],-0.451
same,glycan array binding signal (z-score),[52],0.365
same,glycan array binding signal (z-score),[53],-0.401
same,glycan array binding signal (z-score),[54],-0.406
same,glycan array binding signal (z-score),[55],-0.389
same,glycan array binding signal (z-score),[56],-0.301
same,glycan array binding signal (z-score),[57],-0.366
same,glycan array binding signal (z-score),[58],-0.36
same,glycan array binding signal (z-score),[59],-0.22
same,glycan array binding signal (z-score),[60],-0.262
same,glycan array binding signal (z-score),[61],-0.235
same,glycan array binding signal (z-score),[62],-0.313
same,glycan array binding signal (z-score),[63],-0.342
same,glycan array binding signal (z-score),[64],-0.401
same,glycan array binding signal (z-score),[65],-0.397
same,glycan array binding signal (z-score),[66],-0.275
same,glycan array binding signal (z-score),[67],-0.337
same,glycan array binding signal (z-score),[68],-0.411
same,glycan array binding signal (z-score),[69],-0.404
same,glycan array binding signal (z-score),[70],-0.261
same,glycan array binding signal (z-score),[71],-0.386
same,glycan array binding signal (z-score),[72],-0.348
same,glycan array binding signal (z-score),[73],-0.44
same,glycan array binding signal (z-score),[74],-0.352
same,glycan array binding signal (z-score),[75],-0.394
